This is an account of results in the supplement of paper PMC8728848.

The list shows a part of the results.

Assay in all cases: glycan array binding signal (z-score within array); higher = stronger binding
What all share (details): glycan notation: IUPAC condensed, linker removed; mutation: H84T

The target in experiment [1] is GlcNAc(b1-3)Gal(b1-4)GlcNAc(b1-3)Gal(b1-4)GlcNAc(b1-2)Man(a1-3)[GlcNAc(b1-3)Gal(b1-4)GlcNAc(b1-3)Gal(b1-4)GlcNAc(b1-2)Man(a1-6)]Man(b1-4)GlcNAc(b1-4)GlcNAc. Summed up:
(§1)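 From the Consortium for Functional Glycomics database, 3228 arrays were curated, keeping only those whose protein sequence was available. Binding is given as a within-array Z-score averaged across arrays sharing a protein sequence and across linkers. Negative Z-scores can be read as non-binding.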

Experiment [2] addresses GlcNAc(b1-3)Gal(b1-4)GlcNAc(b1-3)Gal(b1-4)GlcNAc(b1-2)Man(a1-3)[GlcNAc(b1-3)Gal(b1-4)GlcNAc(b1-3)Gal(b1-4)GlcNAc(b1-2)Man(a1-6)]Man(b1-4)GlcNAc(b1-4)[Fuc(a1-6)]GlcNAc. Summed up: as §1
Experiment [3] addresses GlcNAc(b1-3)Gal(b1-4)GlcNAc(b1-3)Gal(b1-4)GlcNAc(b1-2)[GlcNAc(b1-3)Gal(b1-4)GlcNAc(b1-3)Gal(b1-4)GlcNAc(b1-6)]Man(a1-6)[GlcNAc(b1-3)Gal(b1-4)GlcNAc(b1-3)Gal(b1-4)GlcNAc(b1-2)Man(a1-3)]Man(b1-4)GlcNAc(b1-4)[Fuc(a1-6)]GlcNAc. Summed up: as §1
Experiment [4] concerns the target GlcNAc(b1-3)Gal(b1-4)GlcNAc(b1-3)Gal(b1-4)GlcNAc(b1-3)Gal(b1-4)GlcNAc(b1-2)Man(a1-3)[GlcNAc(b1-3)Gal(b1-4)GlcNAc(b1-3)Gal(b1-4)GlcNAc(b1-3)Gal(b1-4)GlcNAc(b1-2)Man(a1-6)]Man(b1-4)GlcNAc(b1-4)GlcNAc. The method in brief:
as §1

Experiment [5] addresses GlcNAc(b1-3)Gal(b1-4)GlcNAc(b1-3)Gal(b1-4)GlcNAc(b1-3)Gal(b1-4)GlcNAc(b1-2)Man(a1-3)[GlcNAc(b1-3)Gal(b1-4)GlcNAc(b1-3)Gal(b1-4)GlcNAc(b1-3)Gal(b1-4)GlcNAc(b1-2)Man(a1-6)]Man(b1-4)GlcNAc(b1-4)[Fuc(a1-6)]GlcNAc. The method in brief:
as §1

Experiment [6] deals with GlcNAc(b1-3)Gal(b1-4)GlcNAc(b1-3)Gal(b1-4)GlcNAc(b1-3)Gal(b1-4)GlcNAc(b1-2)[GlcNAc(b1-3)Gal(b1-4)GlcNAc(b1-3)Gal(b1-4)GlcNAc(b1-3)Gal(b1-4)GlcNAc(b1-6)]Man(a1-6)[GlcNAc(b1-3)Gal(b1-4)GlcNAc(b1-3)Gal(b1-4)GlcNAc(b1-3)Gal(b1-4)GlcNAc(b1-2)Man(a1-3)]Man(b1-4)GlcNAc(b1-4)[Fuc(a1-6)]GlcNAc. The method in brief:
as §1

The target in experiment [7] is GlcNAc(b1-3)Gal(b1-4)GlcNAc(b1-3)Gal(b1-4)GlcNAc(b1-3)Gal(b1-4)GlcNAc(b1-3)Gal(b1-4)GlcNAc(b1-2)Man(a1-3)[GlcNAc(b1-3)Gal(b1-4)GlcNAc(b1-3)Gal(b1-4)GlcNAc(b1-3)Gal(b1-4)GlcNAc(b1-3)Gal(b1-4)GlcNAc(b1-2)Man(a1-6)]Man(b1-4)GlcNAc(b1-4)GlcNAc. The method in brief: as §1
Experiment [8] addresses GlcNAc(b1-3)Gal(b1-4)GlcNAc(b1-3)Gal(b1-4)GlcNAc(b1-3)Gal(b1-4)GlcNAc(b1-3)Gal(b1-4)GlcNAc(b1-2)Man(a1-3)[GlcNAc(b1-3)Gal(b1-4)GlcNAc(b1-3)Gal(b1-4)GlcNAc(b1-3)Gal(b1-4)GlcNAc(b1-3)Gal(b1-4)GlcNAc(b1-2)Man(a1-6)]Man(b1-4)GlcNAc(b1-4)[Fuc(a1-6)]GlcNAc. Summed up: as §1
For experiment [9], the target named is GlcNAc(b1-3)Gal(b1-4)GlcNAc(b1-3)Gal(b1-4)GlcNAc(b1-3)Gal(b1-4)GlcNAc(b1-3)Gal(b1-4)GlcNAc(b1-2)[GlcNAc(b1-3)Gal(b1-4)GlcNAc(b1-3)Gal(b1-4)GlcNAc(b1-3)Gal(b1-4)GlcNAc(b1-3)Gal(b1-4)GlcNAc(b1-6)]Man(a1-6)[GlcNAc(b1-3)Gal(b1-4)GlcNAc(b1-3)Gal(b1-4)GlcNAc(b1-3)Gal(b1-4)GlcNAc(b1-3)Gal(b1-4)GlcNAc(b1-2)Man(a1-3)]Man(b1-4)GlcNAc(b1-4)[Fuc(a1-6)]GlcNAc. The method in brief:
as §1

In experiment [10] the target is GlcNAc(b1-3)Gal(b1-4)GlcNAc(b1-3)Gal(b1-4)GlcNAc(b1-3)GalNAc. The method in brief:
as §1

In experiment [11] the target is GlcNAc(b1-3)Gal(b1-4)GlcNAc(b1-3)GalNAc. The method in brief:
as §1

In experiment [12] the target is GlcNAc(b1-3)Gal(b1-4)GlcNAc(b1-3)[GlcNAc(b1-3)Gal(b1-4)GlcNAc(b1-3)]GalNAc. Summed up: as §1
For experiment [13], the target named is GlcNAc(b1-3)Gal(b1-4)GlcNAc(b1-6)[Gal(b1-3)]GalNAc. Summed up:
as §1

For experiment [14], the target named is GlcNAc(b1-3)Gal(b1-4)GlcNAc(b1-6)[GlcNAc(b1-3)Gal(b1-3)]GalNAc. The method in brief:
as §1

Experiment [15] deals with GlcNAc(b1-3)Gal(b1-4)GlcNAc(b1-6)[GlcNAc(b1-3)]Gal(b1-4)GlcNAc. Summed up:
as §1

The next experiment addresses GlcNAc(b1-3)GalNAc. Summed up:
as §1

A further experiment addresses GlcNAc(b1-3)Man. Summed up:
as §1

Experiment [16] deals with GlcNAc(b1-3)[GlcNAc(b1-4)][GlcNAc(b1-6)]GlcNAc. The method in brief: as §1
For experiment [17], the target named is GlcNAc(b1-3)[GlcNAc(b1-6)]Gal(b1-4)GlcNAc. The method in brief:
as §1

For experiment [18], the target named is GlcNAc(b1-3)[GlcNAc(b1-6)]GalNAc. Summed up:
as §1

Experiment [19] concerns the target GlcNAc(b1-4)Gal(b1-4)GlcNAc. Summed up: as §1
A further experiment deals with GlcNAc(b1-4)GlcNAc. The method in brief: as §1
Experiment [20] concerns the target GlcNAc(b1-4)GlcNAc(b1-4)GlcNAc. Summed up: as §1

B1: Banana lectin (Musa acuminata) (protein)
chain: MNGAIKVGAWGGNGGSAFDMGPAYRIISVKIFSGDVVDGVDVTFTYYGKTETRHYGGSGGTPHEIVLQEGEYLVGMAGEVANYTGAVVLGKLGFSTNKKAYGPFGNTGGTPFSLPIAAGKISGFFGRGGKFLDAIGVYLEPLEHHHHHH
With B1, the “glycan array binding signal (z-score)” value is -0.141 in experiment [1]; -0.119 in experiment [2]; -0.137 in [3]; -0.199 in experiment [4]; -0.082 in experiment [5]; -0.082 in experiment [6]. Also, the “glycan array binding signal (z-score)” value in experiment [7] is -0.146; in experiment [8] it was -0.142; in experiment [9], -0.05; in [10], -0.171; in [11], -0.167; in experiment [12], -0.16. Also, the “glycan array binding signal (z-score)” value is -0.188 in [13]; -0.14 in experiment [14]; -0.185 in experiment [15]; -0.155 in the experiment with GlcNAc(b1-3)GalNAc; -0.18 in the experiment with GlcNAc(b1-3)Man; -0.18 in [16]. For the same molecule, the “glycan array binding signal (z-score)” value in [17] is -0.174; in experiment [18] it was -0.191; in [19], -0.132; with GlcNAc(b1-4)GlcNAc, -0.197; in experiment [20] it was -0.203.
